The values below come from article PMC4081100.

Only a part is listed here, and it is no random draw. At the low end of the ranking the order means little.

The first experiment deals with GST-NTL6(1-168) (UniProt Q9SCK6). The experiment in a line: universal protein binding microarray (PBM). The following applies: high values mean tight binding; double strand, one strand shown.
Take ACGCCATC: the binding signal was found to be 0.025 E-score.
For CCACACGC, the binding signal was 0.0233 E-score.
On to ACGCAAAC, for which the binding signal amounted to 0.0288 E-score.
Same read-out and setting: the result for ACGTAACA reads 0.133 E-score.
The same measure, in the same setting: the result for ACCCCGCC reads 0.182 E-score; that for ATGCCGTA, -0.0495 E-score.
The sequence ATGCGTAA registered a binding signal of 0.00976 E-score.
Same read-out and setting: the same measure for AGCGTAAA: 0.0346 E-score; for ACGCAACT: 0.105 E-score; for CACGCTTC: 0.0128 E-score.
In the case of CACGCTAA, the binding signal was determined as 0.0834 E-score.
Same read-out and setting: the same measure for ACGCTTCC: 0.0789 E-score; for CTTGCGTC: -0.0486 E-score; for CGTTTCCC: 0.14 E-score.
Still for that read-out and setting: the same measure for GGAAGTAA: 0.404 E-score.
On the same count and under the same terms, the same measure for CACGTTAC: 0.0274 E-score; for CCCCACCC: 0.274 E-score.
GCAAGAAA gave a binding signal of 0.306 E-score.
Same read-out and setting: the same measure for ACGCTATC: -0.0795 E-score; for GTAAGGAA: 0.486 E-score.
The same measure, in the same setting: the same measure for AACGTACG: 0.035 E-score; for CTACACGC: -0.0778 E-score.
On to AGGAAAGC, for which the binding signal is 0.253 E-score.

For another experiment, the target named is T1, GST-ANAC019 NAC domain (UniProt Q9C932).
T1 sequence: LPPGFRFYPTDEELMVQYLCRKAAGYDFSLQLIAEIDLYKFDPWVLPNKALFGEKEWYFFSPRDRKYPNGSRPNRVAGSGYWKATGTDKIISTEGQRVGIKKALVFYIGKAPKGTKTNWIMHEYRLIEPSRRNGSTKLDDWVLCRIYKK
The experiment in a line: universal protein binding microarray (PBM). The following applies: high values mean tight binding; double strand, one strand shown.
Sequence ACGCCATC came in with a binding signal of 0.0335 E-score.
On the same count and under the same terms, the result for GAGGAAAA reads 0.033 E-score; that for ACGCAAAC, 0.391 E-score; that for ATGCCGTA, 0.395 E-score.
On the same count and under the same terms, the result for ATGCGTAA reads 0.00479 E-score.
Sequence TGAAGGAA gave a binding signal of 0.0877 E-score.
Still for that read-out and setting: the result for ACCTTAAC reads 0.0497 E-score; that for GGAAGTAA, 0.151 E-score; that for CCCCACCC, 0.177 E-score.
The sequence GCAAGAAA came in with a binding signal of -0.0659 E-score.
In turn, ACGTAACG yielded a binding signal of 0.436 E-score.
On the same count and under the same terms, the result for ACCTTTCC reads -0.0568 E-score.
On to GAAGGGAA, for which the binding signal turned out to be 0.101 E-score.
On the same count and under the same terms, the same measure for AACGTAAT: 0.266 E-score; for GAAGGAAA: 0.118 E-score; for AAGTAATC: 0.144 E-score.

For a further experiment, the target named is T2, GST-ANAC055(1-171) (UniProt Q9LDY8).
T2 sequence: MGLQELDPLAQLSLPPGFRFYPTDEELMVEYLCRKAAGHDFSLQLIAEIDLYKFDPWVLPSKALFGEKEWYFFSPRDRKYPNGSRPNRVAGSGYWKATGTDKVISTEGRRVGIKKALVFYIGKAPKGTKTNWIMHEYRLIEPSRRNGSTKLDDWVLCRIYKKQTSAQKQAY
The experiment is described as follows: universal protein binding microarray (PBM). The following applies: high values mean tight binding; double strand, one strand shown.
Sequence GAGGAAAA had a binding signal of 0.0119 E-score.
ACCCCGCC showed a binding signal of 0.123 E-score.
Still for that read-out and setting: the result for AGCGTAAA reads 0.026 E-score; that for GTGAAGAA, 0.215 E-score.
Still for that read-out and setting: the result for CACGCTAA reads 0.0365 E-score; that for GCGTAATA, 0.189 E-score; that for ACGTAACG, 0.389 E-score.
On the same count and under the same terms, the same measure for ACCTTTCC: 0.0893 E-score.
In turn, GAAGGGAA yielded a binding signal of -0.0381 E-score.
Still for that read-out and setting: the same measure for ACGCTATC: 0.0307 E-score.
Sequence GAAGGAAA came in with a binding signal of 0.184 E-score.
As for AACGTACG, the binding signal came to 0.207 E-score.
On the same count and under the same terms, the result for CTACACGC reads 0.0947 E-score.

The target of the next experiment is T3, GST-ATAF1 NAC domain (UniProt Q39013).
T3 sequence: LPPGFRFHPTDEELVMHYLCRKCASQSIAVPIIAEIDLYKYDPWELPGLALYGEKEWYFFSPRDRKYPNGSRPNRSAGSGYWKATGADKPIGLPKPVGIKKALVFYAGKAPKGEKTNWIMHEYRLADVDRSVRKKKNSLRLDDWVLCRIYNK
The experiment is described as follows: universal protein binding microarray (PBM). The following applies: high values mean tight binding; double strand, one strand shown.
In turn, ACGCAAAC returned a binding signal of 0.258 E-score.
The same measure, in the same setting: the result for ATGCGTAA reads 0.115 E-score; that for AGCGTAAA, 0.12 E-score.
Same read-out and setting: the result for GTAAGTAA reads 0.245 E-score; that for CACGCTAA, -0.00971 E-score; that for ACCTTAAC, 0.155 E-score.
On the same count and under the same terms, the result for CTTGCGTC reads 0.0507 E-score; that for CGTTTCCC, 0.108 E-score; that for ACCTTTCC, -0.0171 E-score.
Regarding GAAGGGAA, the binding signal came to 0.0169 E-score.
The same measure, in the same setting: the result for TAGCGTAA reads 0.281 E-score.
As for GAAGGAAA, the binding signal is 0.096 E-score.
In turn, AGCTTTCC had a binding signal of -0.0217 E-score.
The same measure, in the same setting: the result for AACGTACG reads 0.326 E-score.

Another experiment deals with T4, GST-ANAC092(1-285) full length (UniProt Q9FKA0).
T4 sequence: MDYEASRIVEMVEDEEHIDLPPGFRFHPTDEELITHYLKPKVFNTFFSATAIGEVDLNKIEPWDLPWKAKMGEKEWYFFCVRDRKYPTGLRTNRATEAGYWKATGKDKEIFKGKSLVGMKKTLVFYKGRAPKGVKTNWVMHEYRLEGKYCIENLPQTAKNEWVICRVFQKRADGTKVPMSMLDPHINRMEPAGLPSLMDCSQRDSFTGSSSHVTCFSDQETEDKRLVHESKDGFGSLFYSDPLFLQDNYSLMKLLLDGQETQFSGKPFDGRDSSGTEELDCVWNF
The experiment in a line: universal protein binding microarray (PBM). The following applies: high values mean tight binding; double strand, one strand shown.
GAGGAAAA had a binding signal of 0.152 E-score.
Still for that read-out and setting: the result for ACGTAACA reads 0.426 E-score; that for ATGCCGTA, 0.41 E-score; that for CACGCTTC, 0.437 E-score.
Same read-out and setting: the result for CACGCTAA reads 0.471 E-score.
On the same count and under the same terms, the result for ACCTTAAC reads 0.147 E-score; that for GAAGGGAA, 0.0165 E-score.
ACGCTATC had a binding signal of 0.454 E-score.

Another experiment addresses T5, GST-NAP(1-166) (UniProt O49255).
T5 sequence: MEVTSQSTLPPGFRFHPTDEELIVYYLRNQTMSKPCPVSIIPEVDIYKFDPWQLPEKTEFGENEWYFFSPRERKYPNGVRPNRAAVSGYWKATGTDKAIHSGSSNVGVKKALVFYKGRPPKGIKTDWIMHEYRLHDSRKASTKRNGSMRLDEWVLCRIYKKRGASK
The experiment is described as follows: universal protein binding microarray (PBM). The following applies: transcription factors of Arabidopsis thaliana; high values mean tight binding; most listed sequences are background and not binding sites; double strand, one strand shown.
ACGCCATC yielded a binding signal of 0.171 E-score.
On the same count and under the same terms, the same measure for CCACACGC: 0.169 E-score.
GAGGAAAA: the binding signal worked out at 0.0333 E-score.
Same read-out and setting: the same measure for ACCCCGCC: 0.1 E-score.
The sequence ATGCCGTA yielded a binding signal of 0.36 E-score.
The same measure, in the same setting: the result for ATGCGTAA reads 0.175 E-score.
TGAAGGAA showed a binding signal of -0.0181 E-score.
The same measure, in the same setting: the result for GTAAGTAA reads 0.0288 E-score.
Still for that read-out and setting: the result for CACGCTTC reads 0.109 E-score; that for CACGCTAA, 0.0299 E-score.
Sequence ACCTTAAC had a binding signal of 0.0261 E-score.
With GGAAGTAA, the binding signal was -0.00424 E-score.
With CCCCACCC, the binding signal is -0.0117 E-score.
Take GCAAGAAA: the binding signal was -0.0125 E-score.
As to ACGTAACG, the binding signal came to 0.411 E-score.
Sequence ACCTTTCC returned a binding signal of 0.000505 E-score.
